# Reference: the supplement of paper PMC8728848
# Some of the results follow.
# B1: CBM13 2a (Mycobacterium tuberculosum), P64849 (protein)
# chain: DGPVQLKSRLGDVCLDAPSGSWFSPLVINPCNGTDFQRWNLTDDRQVESVAFPGECVNIGNALWARLQPCVNWISQHWTVQPDGLVKSDLDACLTVLGGPDPGTWVSTRWCDPNAPDQQWDSVPLEHHHHHH
# What was measured:
# Assay in all cases: glycan array binding signal (z-score within array); higher = stronger binding
# Conditions in all cases: glycan notation: IUPAC condensed, linker removed
# [1] = target: GlcNAc(b1-4)GlcNAc(b1-4)GlcNAc(b1-4)GlcNAc(b1-4)GlcNAc(b1-4)GlcNAc
# Outline: (§1)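 The binding signal is a Z-score computed within each array and averaged over linkers. Arrays of the same protein sequence at different concentrations or buffers were also averaged together. Data originate from 3228 arrays in the Consortium for Functional Glycomics database, kept only where the protein sequence was available.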
# [2] = target: GlcNAc(b1-4)[GlcNAc(b1-6)]GalNAc
# Outline: as §1
# [3] = target: GlcNAc(b1-6)Gal(b1-4)GlcNAc
# Outline: as §1
# GlcNAc(b1-6)GalNAc = target: GlcNAc(b1-6)GalNAc
# Outline: as §1
# [4] = target: GlcNAc6S(b1-3)Gal(b1-4)GlcNAc
# Outline: as §1
# Kdn(a2-3)Gal(b1-3)GalNAc = target: Kdn(a2-3)Gal(b1-3)GalNAc
# Outline: as §1
# Kdn(a2-3)Gal(b1-3)GlcNAc = target: Kdn(a2-3)Gal(b1-3)GlcNAc
# Outline: as §1
# Kdn(a2-3)Gal(b1-4)Glc = target: Kdn(a2-3)Gal(b1-4)Glc
# Outline: as §1
# Kdn(a2-3)Gal(b1-4)GlcNAc = target: Kdn(a2-3)Gal(b1-4)GlcNAc
# Outline: as §1
# [5] = target: Kdn(a2-3)Gal(b1-4)[Fuc(a1-3)]GlcNAc
# Outline: as §1
# Kdn(a2-6)Gal(b1-4)GlcNAc = target: Kdn(a2-6)Gal(b1-4)GlcNAc
# Outline: as §1
# [6] = target: Man(a1-2)Man(a1-2)Man(a1-3)Man
# Outline: as §1
# [7] = target: Man(a1-2)Man(a1-2)Man(a1-6)[Man(a1-3)]Man
# Outline: as §1
# Man(a1-2)Man(a1-3)Man = target: Man(a1-2)Man(a1-3)Man
# Outline: as §1
# [8] = target: Man(a1-2)Man(a1-3)[Man(a1-2)Man(a1-6)]Man
# Outline: as §1
# [9] = target: Man(a1-2)Man(a1-3)[Man(a1-2)Man(a1-6)]Man(a1-6)[Man(a1-2)Man(a1-2)Man(a1-3)]Man
# Outline: as §1
# [10] = target: Man(a1-2)Man(a1-3)[Man(a1-2)Man(a1-6)]Man(a1-6)[Man(a1-2)Man(a1-2)Man(a1-3)]Man(b1-4)GlcNAc(b1-4)GlcNAc
# Outline: as §1
# [11] = target: Man(a1-2)Man(a1-3)[Man(a1-6)]Man(a1-6)[Man(a1-2)Man(a1-3)]Man(b1-4)GlcNAc(b1-4)GlcNAc
# Outline: as §1
# [12] = target: Man(a1-2)Man(a1-6)[Man(a1-3)]Man(a1-6)[Man(a1-2)Man(a1-2)Man(a1-3)]Man
# Outline: as §1
# [13] = target: Man(a1-2)Man(a1-6)[Man(a1-3)]Man(a1-6)[Man(a1-2)Man(a1-2)Man(a1-3)]Man(b1-4)GlcNAc(b1-4)GlcNAc
# Outline: as §1
# Man(a1-3)[Man(a1-6)]Man = target: Man(a1-3)[Man(a1-6)]Man
# Outline: as §1
# [14] = target: Man(a1-3)[Man(a1-6)]Man(a1-6)[Man(a1-2)Man(a1-3)]Man(b1-4)GlcNAc(b1-4)GlcNAc
# Outline: as §1
# [15] = target: Man(a1-3)[Man(a1-6)]Man(a1-6)[Man(a1-3)]Man
# Outline: as §1
# [16] = target: Man(a1-3)[Man(a1-6)]Man(a1-6)[Man(a1-3)]Man(b1-4)GlcNAc(b1-4)GlcNAc
# Outline: as §1
# [17] = target: Man(a1-3)[Man(a1-6)]Man(b1-4)GlcNAc(b1-4)GlcNAc
# Outline: as §1
# [18] = target: Man(a1-3)[Man(a1-6)]Man(b1-4)GlcNAc(b1-4)[Fuc(a1-6)]GlcNAc
# Outline: as §1
# Man(a1-6)Man = target: Man(a1-6)Man
# Outline: as §1
# Man(b1-4)GlcNAc = target: Man(b1-4)GlcNAc
# Outline: as §1
# MurNAc(b1-4)GlcNAc = target: MurNAc(b1-4)GlcNAc
# Outline: as §1
# Neu5Ac(a2-3)Gal = target: Neu5Ac(a2-3)Gal
# Outline: as §1
# [19] = target: Neu5Ac(a2-3)Gal(b1-3)GalNAc
# Outline: as §1
# [20] = target: Neu5Ac(a2-3)Gal(b1-3)GalNAc(b1-3)Gal(a1-4)Gal(b1-4)Glc
# Outline: as §1
# [21] = target: Neu5Ac(a2-3)Gal(b1-3)GalNAc(b1-4)[Neu5Ac(a2-3)]Gal(b1-4)Glc
# Outline: as §1
# [22] = target: Neu5Ac(a2-3)Gal(b1-3)GalNAc(b1-4)[Neu5Ac(a2-8)Neu5Ac(a2-3)]Gal(b1-4)Glc
# Outline: as §1
# [23] = target: Neu5Ac(a2-3)Gal(b1-3)GalNAc6S
# Outline: as §1
# [24] = target: Neu5Ac(a2-3)Gal(b1-3)GlcNAc
# Outline: as §1
# [25] = target: Neu5Ac(a2-3)Gal(b1-3)GlcNAc(b1-2)Man
# Outline: as §1
# [26] = target: Neu5Ac(a2-3)Gal(b1-3)GlcNAc(b1-2)Man(a1-3)[GlcNAc(b1-4)][Neu5Ac(a2-3)Gal(b1-3)GlcNAc(b1-2)Man(a1-6)]Man(b1-4)GlcNAc(b1-4)GlcNAc
# Outline: as §1
# [27] = target: Neu5Ac(a2-3)Gal(b1-3)GlcNAc(b1-2)Man(a1-3)[Neu5Ac(a2-3)Gal(b1-3)GlcNAc(b1-2)Man(a1-6)]Man(b1-4)GlcNAc(b1-4)GlcNAc
# Outline: as §1
# [28] = target: Neu5Ac(a2-3)Gal(b1-3)GlcNAc(b1-3)Gal(b1-3)GlcNAc
# Outline: as §1
# [29] = target: Neu5Ac(a2-3)Gal(b1-3)GlcNAc(b1-3)Gal(b1-4)GlcNAc
# Outline: as §1
# [30] = target: Neu5Ac(a2-3)Gal(b1-3)GlcNAc(b1-3)GalNAc
# Outline: as §1
# [31] = target: Neu5Ac(a2-3)Gal(b1-3)GlcNAc(b1-4)Gal(b1-4)Glc
# Outline: as §1
# [32] = target: Neu5Ac(a2-3)Gal(b1-3)GlcNAc(b1-6)GalNAc
# Outline: as §1
# [33] = target: Neu5Ac(a2-3)Gal(b1-3)GlcNAc6S
# Outline: as §1
binder,measurement,setting,value
B1,glycan array binding signal (z-score),[1],-0.084
same,glycan array binding signal (z-score),[2],-0.38
same,glycan array binding signal (z-score),[3],-0.354
same,glycan array binding signal (z-score),GlcNAc(b1-6)GalNAc,-0.255
same,glycan array binding signal (z-score),[4],-0.288
same,glycan array binding signal (z-score),Kdn(a2-3)Gal(b1-3)GalNAc,-0.215
same,glycan array binding signal (z-score),Kdn(a2-3)Gal(b1-3)GlcNAc,-0.287
same,glycan array binding signal (z-score),Kdn(a2-3)Gal(b1-4)Glc,-0.161
same,glycan array binding signal (z-score),Kdn(a2-3)Gal(b1-4)GlcNAc,-0.282
same,glycan array binding signal (z-score),[5],-0.089
same,glycan array binding signal (z-score),Kdn(a2-6)Gal(b1-4)GlcNAc,-0.022
same,glycan array binding signal (z-score),[6],-0.193
same,glycan array binding signal (z-score),[7],0.088
same,glycan array binding signal (z-score),Man(a1-2)Man(a1-3)Man,-0.191
same,glycan array binding signal (z-score),[8],-0.144
same,glycan array binding signal (z-score),[9],-0.338
same,glycan array binding signal (z-score),[10],2.04
same,glycan array binding signal (z-score),[11],-0.202
same,glycan array binding signal (z-score),[12],-0.405
same,glycan array binding signal (z-score),[13],-0.434
same,glycan array binding signal (z-score),Man(a1-3)[Man(a1-6)]Man,-0.189
same,glycan array binding signal (z-score),[14],6.51
same,glycan array binding signal (z-score),[15],-0.112
same,glycan array binding signal (z-score),[16],-0.145
same,glycan array binding signal (z-score),[17],0.415
same,glycan array binding signal (z-score),[18],-0.171
same,glycan array binding signal (z-score),Man(a1-6)Man,-0.141
same,glycan array binding signal (z-score),Man(b1-4)GlcNAc,-0.238
same,glycan array binding signal (z-score),MurNAc(b1-4)GlcNAc,-0.304
same,glycan array binding signal (z-score),Neu5Ac(a2-3)Gal,-0.233
same,glycan array binding signal (z-score),[19],-0.15
same,glycan array binding signal (z-score),[20],0.272
same,glycan array binding signal (z-score),[21],-0.344
same,glycan array binding signal (z-score),[22],-0.119
same,glycan array binding signal (z-score),[23],-0.262
same,glycan array binding signal (z-score),[24],-0.077
same,glycan array binding signal (z-score),[25],-0.015
same,glycan array binding signal (z-score),[26],-0.103
same,glycan array binding signal (z-score),[27],-0.107
same,glycan array binding signal (z-score),[28],-0.075
same,glycan array binding signal (z-score),[29],-0.207
same,glycan array binding signal (z-score),[30],0.305
same,glycan array binding signal (z-score),[31],-0.032
same,glycan array binding signal (z-score),[32],-0.375
same,glycan array binding signal (z-score),[33],1.68
